In PubChem BioAssay AID504339 (National Center for Advancing Translational Sciences (NCATS), 2011):
Screen size: about 390,000 compounds; about 17,000 (4.4%) were called active. Inconclusive results, whose numbers are uncertain, are shown with a selection of clear calls. The call rests on the fitted dose curve; in most records, active means well fitted inhibition curve with a large enough effect; inconclusive means small, poorly fitted or top-dose-only effect; inactive means no such curve, though single readings can be large or run the other way. Potencies beside an inconclusive call are fits to weak or partial responses and may not hold up.

Molecular target: Lysine-specific demethylase 4A (Homo sapiens) (UniProt O75164)
Assay: qHTS Assay for Inhibitors of JMJD2A-Tudor Domain; further: nearly all actives have a fitted effect of over 50% in size
Settings: AlphaScreen JMJD2A-Tudor / H3K4me3 peptide binding; series mostly up to 114 µM
Potency means the concentration at half of the fitted maximal effect; tags describe the fitted curve by direction and shape.

Chain of UniProt O75164 (O75164 whole entry, looked up, the tested form may be a part): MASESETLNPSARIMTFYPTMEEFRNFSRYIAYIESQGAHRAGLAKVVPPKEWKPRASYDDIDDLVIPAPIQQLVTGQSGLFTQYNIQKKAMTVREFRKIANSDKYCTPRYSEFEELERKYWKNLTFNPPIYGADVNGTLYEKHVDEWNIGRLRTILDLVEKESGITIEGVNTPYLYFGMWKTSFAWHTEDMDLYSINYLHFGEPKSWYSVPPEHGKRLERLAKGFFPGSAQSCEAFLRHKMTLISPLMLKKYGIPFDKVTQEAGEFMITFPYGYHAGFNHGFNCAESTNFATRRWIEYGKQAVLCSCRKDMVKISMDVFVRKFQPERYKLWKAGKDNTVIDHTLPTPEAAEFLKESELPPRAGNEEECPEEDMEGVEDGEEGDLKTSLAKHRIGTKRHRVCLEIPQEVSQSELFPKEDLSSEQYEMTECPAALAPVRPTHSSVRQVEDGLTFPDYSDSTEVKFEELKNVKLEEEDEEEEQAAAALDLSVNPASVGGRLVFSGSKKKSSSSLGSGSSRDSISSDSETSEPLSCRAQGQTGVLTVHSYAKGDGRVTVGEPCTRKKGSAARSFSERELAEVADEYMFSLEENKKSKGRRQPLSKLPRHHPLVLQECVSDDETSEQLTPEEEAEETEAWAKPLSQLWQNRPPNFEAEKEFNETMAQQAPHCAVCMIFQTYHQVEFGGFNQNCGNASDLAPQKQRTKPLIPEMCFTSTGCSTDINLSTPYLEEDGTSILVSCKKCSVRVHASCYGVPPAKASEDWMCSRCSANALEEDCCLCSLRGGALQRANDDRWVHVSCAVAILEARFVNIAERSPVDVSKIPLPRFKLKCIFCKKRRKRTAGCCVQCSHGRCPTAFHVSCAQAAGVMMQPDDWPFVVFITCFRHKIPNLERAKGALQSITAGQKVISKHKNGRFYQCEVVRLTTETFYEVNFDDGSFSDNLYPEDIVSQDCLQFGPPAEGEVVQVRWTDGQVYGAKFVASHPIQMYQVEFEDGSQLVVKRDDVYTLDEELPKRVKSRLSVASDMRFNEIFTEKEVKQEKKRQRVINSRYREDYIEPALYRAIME

Potency, inconclusive:
Cc1oc(C)c2c(=O)cc(-c3ccc4c(c3)OCO4)cc(OC(=O)c3ccccc3Br)c12 35.5 µM [inhibitor, partial curve]
COc1ccc(-c2[nH]c(-c3cc(OC)c4c(c3)OCO4)nc2-c2ccccc2)cc1 44.7 µM [inhibitor, single point]
CCOc1cccc(C2C(C(=O)c3ccc(C)o3)=C(O)C(=O)N2CCCn2ccnc2)c1 (configuration not stated) 39.8 µM [inhibitor, single point]
CCOc1ccccc1NC(=O)NCCc1c[nH]c2ccccc12 11.2 µM [inhibitor, full curve, poor fit]
COc1cc(C(=O)c2nccc3cc(OC)c(OC)cc23)c([N+](=O)[O-])cc1OC 28.2 µM [inhibitor, full curve, poor fit]
Cc1cc(C)c(S(=O)(=O)Nc2ccc(O)c(Sc3ncn[nH]3)c2)c(C)c1 70.8 µM [inhibitor, single point]
CCN1CCN(CCNC(=O)c2ccc3c(c2)N(Cc2ccc(F)cc2)C(=O)/C(=C/c2ccccc2)S3)CC1 44.7 µM [inhibitor, partial curve]
CC1=CCC(C(=O)O)C(C(=O)Nc2ccc(-c3nc4ccc(C)cc4s3)cc2)C1 (configuration not stated) 56.2 µM [inhibitor, single point]
COc1cc2c(cc1NC(=S)Nc1cccc3ccccc13)oc1ccccc12 50.1 µM [inhibitor, partial curve]

Potency, active:
CCOc1ccc(OCCN2CCCCC2)cc1 10 µM
O=C(Cc1cccs1)OCC(=O)c1ccco1 79.4 µM
N#C/C(=C\C1=C(N2CCOCC2)C(=C\c2ccccc2)/CC1)C(=O)Nc1ccccc1F 4.47 µM
CC(C)c1ccc(N(CC(=O)O)S(=O)(=O)c2cccnc2)cc1 89.1 µM
CNC(=S)NNc1nc(N2CCOCC2)nc(N2CCOCC2)n1 25.1 µM

Potency, inactive:
CSC1=N/C(=C\c2ccc(C)cc2)C(=O)S1
COc1ccc(Cc2nnc(NC(=O)c3ccc(C)cc3)s2)cc1OC
CCOc1ccc(NC(=O)c2ccc3[nH]c(=O)c(=O)[nH]c3c2)cc1
O=C(NCc1ccco1)c1ccc(CS(=O)(=O)Cc2ccc(Cl)cc2)o1
CC(=O)c1cnc(-c2ccccc2Cl)s1
COCCCNC(=O)C1CCN(c2nc3ccc(C)cc3[nH]2)CC1
CC(C)(c1ccc(O)cc1)c1ccc(O)cc1
COC(=O)c1ccc(Oc2cc(C)nc(NCc3ccccc3)n2)cc1
